Patent US20250163048A1 (Tango Therapeutics, Inc., priority 2022, published 2025)

Assays:
[1] = tested on: HAP1 MTAP-deleted cell line; assay: SDMA in-cell western assay, HAP1 MTAP-deleted; details: for IC50 / IC90: Homo sapiens; for IC50: HAP1, read-out: Hap1 MTAP deleted IC50, SDMA in-cell western, HAP1 MTAP-deleted cell line; for Hap1 MTAP intact/deleted ratio: IC50 ratio between HAP1 MTAP-intact and HAP1 MTAP-deleted cell line, SDMA in-cell western; for IC90: HAP1, read-out: Hap1 MTAP deleted IC90, SDMA in-cell western, HAP1 MTAP-deleted cell line
MTAP-deleted cell line = assay: viability assay for the MTAP-deleted cell line; type: cell-based; details: Homo sapiens, HAP1, viability assay
[2] = tested on: HAP1 MTAP-intact cell line; assay: SDMA in-cell western assay, HAP1 MTAP-intact; details: Homo sapiens
[3] = HAP1, read-out: Hap1 MTAP intact IC50, SDMA in-cell western, HAP1 MTAP-intact cell line
[4] = HAP1, read-out: Hap1 MTAP intact IC50

| Compound | IC50 [1] | IC50 [2, 3] | IC90 [1] | IC50 [2, 4] | Hap1 MTAP intact/deleted ratio [1] | IC50 (MTAP-deleted cell line) |
| --- | --- | --- | --- | --- | --- | --- |
| CO[C@@H]1CN(C)CC[C@H]1c1nc2cc([C@H]3CC[C@H](C)CN3C(=O)C(=O)Nc3cncc4cn[nH]c34)ccc2s1 (mixture of isomers) [Compound 128, 2-((2R,5S)-2-(2-(rac-(3S,4R)-3-methoxy-1-methylpiperidin-4-yl)benzo[d]thiazol-5-yl)-5-methylpiperidin-1-yl)-2-oxo-N-(1H-pyrazolo[4,3-c]pyridin-7-yl)acetamide] | < 5 nM | > 50 nM | – | – | A (“A” indicates an IC50 ratio greater than or equal to 30 fold) | < 100 nM |
| C[C@H]1CC[C@H](c2ccc3sc(C4CCCN(C)C4)nc3c2)N(C(=O)C(=O)Nc2cncc3cn[nH]c23)C1 (mixture of isomers) [Compound 3, 2-((2R,5S)-5-methyl-2-(2-(1-methylpiperidin-3-yl)benzo[d]thiazol-5-yl)piperidin-1-yl)-2-oxo-N-(1H-pyrazolo[4,3-c]pyridin-7-yl)acetamide] | < 5 nM | 5 to 50 nM | < 75 nM | – | C (“C” indicates an IC50 ratio of less than 15 fold) | < 100 nM |
| C[C@H]1CC[C@H](c2ccc3sc(C4CCN(C)C(C)(C)C4)nc3c2)N(C(=O)C(=O)Nc2cncc3cn[nH]c23)C1 (mixture of isomers) [Compound 59, 2-((2R,5S)-5-methyl-2-(2-(1,2,2-trimethylpiperidin-4-yl)benzo[d]thiazol-5-yl)piperidin-1-yl)-2-oxo-N-(1H-pyrazolo[4,3-c]pyridin-7-yl)acetamide] | < 5 nM | 5 to 50 nM | < 75 nM | – | C (“C” indicates an IC50 ratio of less than 15 fold) | < 100 nM |
| [2H]C([2H])([2H])N1CCC(c2nc3cc([C@H]4CC[C@H](C)CN4C(=O)C(=O)Nc4cncc5cn[nH]c45)ccc3s2)CC1 (racemic) [Compound 119, 2-oxo-N-(1H-pyrazolo[4,3-c]pyridin-7-yl)-2-[rac-(5S)-5-methyl-2-[2-[1-(trideuteriomethyl)-4-piperidyl]-1,3-benzothiazol-5-yl]-1-piperidyl]acetamide] | < 5 nM | – | < 75 nM | 5 to 50 nM | B (“B” indicates an IC50 ratio greater than or equal to 15 fold but lower than 30 fold) | < 100 nM |
| C[C@H]1CC[C@H](c2ccc(O)cc2)N(C(=O)C(=O)Nc2cnc(N)c3cn[nH]c23)C1 (racemic) [Compound 229, N-(4-Amino-1H-pyrazolo[4,3-c]pyridin-7-yl)-2-oxo-2-[rac-(2R,5S)-2-(4-hydroxyphenyl)-5-methyl-1-piperidyl]acetamide] | – | – | – | – | – | < 100 nM |
| C[C@H]1CC[C@H](C2CCOCC2)N(C(=O)C(=O)Nc2cnc(N)c3cn[nH]c23)C1 [Compound 150, N-(4-amino-1H-pyrazolo[4,3-c]pyridin-7-yl)-2-((2R,5S)-5-methyl-2-(tetrahydro-2H-pyran-4-yl)piperidin-1-yl)-2-oxoacetamide] | 5 to 50 nM | > 50 nM | > 125 nM | – | A (“A” indicates an IC50 ratio greater than or equal to 30 fold) | – |
| C[C@H]1CC[C@H](c2ccc3c(c2)OCC3)N(C(=O)C(=O)Nc2cnc(N)c3c2cnn3C)C1 [Compound 242] | – | – | – | – | – | < 100 nM |
| C[C@H]1CC[C@H](c2ccc3c(c2)CCO3)N(C(=O)C(=O)Nc2cnc(N)c3c2cnn3C)C1 [Compound 248] | – | – | – | – | – | < 100 nM |
| C[C@H]1CC[C@H](c2ccc3sc(C4CCN(C)CC4)nc3c2)N(C(=O)C(=O)Nc2cnc(N)c3c2cnn3C)C1 [Compound 252, N-(7-Amino-1-methyl-pyrazolo[3,4-c]pyridin-4-yl)-2-oxo-2-[(2R,5S)-5-methyl-2-[2-(1-methyl-4-piperidyl)-1,3-benzothiazol-5-yl]-1-piperidyl]acetamide] | – | – | – | – | – | < 100 nM |

More lines, main results first:

| IC50 [1] | IC50 [2, 3] | IC90 [1] | IC50 [2, 4] | Compound | Hap1 MTAP intact/deleted ratio [1] | IC50 (MTAP-deleted cell line) |
| --- | --- | --- | --- | --- | --- | --- |
| < 5 nM | > 50 nM | < 75 nM | – | C[C@@H]1CC[C@@H](C2CCCC2)N(C(=O)C(=O)Nc2cnc(N)c3cn[nH]c23)C1 (racemic) [Compound 147, N-(4-amino-1H-pyrazolo[4,3-c]pyridin-7-yl)-2-(rac-(2S,5R)-2-cyclopentyl-5-methylpiperidin-1-yl)-2-oxoacetamide] | A (“A” indicates an IC50 ratio greater than or equal to 30 fold) | < 100 nM |
| < 5 nM | 5 to 50 nM | < 75 nM | – | CCOc1cc([C@H]2CC[C@H](C)CN2C(=O)C(=O)Nc2cnc(N)c3cn[nH]c23)ccn1 (racemic) [Compound 187, N-(4-Amino-2H-pyrazolo[4,3-c]pyridin-7-yl)-2-oxo-2-[rac-(2R,5S)-2-(2-ethoxy-4-pyridyl)-5-methyl-1-piperidyl]acetamide] | A (“A” indicates an IC50 ratio greater than or equal to 30 fold) | < 100 nM |
| 5 to 50 nM | > 50 nM | – | – | C[C@H]1CC[C@H](c2ccc(N3CCN(C)CC3)cc2)N(C(=O)C(=O)Nc2cnc(N)c3cn[nH]c23)C1 [Compound 120, N-(4-amino-1H-pyrazolo[4,3-c]pyridin-7-yl)-2-((2R,5S)-5-methyl-2-(4-(4-methylpiperazin-1-yl)phenyl)piperidin-1-yl)-2-oxoacetamide] | B (“B” indicates an IC50 ratio greater than or equal to 15 fold but lower than 30 fold) | – |
| – | – | – | 5 to 50 nM | C[C@H]1CC[C@H](c2ccccc2)N(C(=O)C(=O)Nc2cnc(N)c3cn[nH]c23)C1 [Compound 126, N-(4-amino-1H-pyrazolo[4,3-c]pyridin-7-yl)-2-oxo-2-[(2R,5S)-5-methyl-2-phenyl-1-piperidyl]acetamide] | – | < 100 nM |
| < 5 nM | 5 to 50 nM | < 75 nM | – | C[C@H]1CC[C@H](c2ccc(C#N)cc2)N(C(=O)C(=O)Nc2cnc(N)c3cn[nH]c23)C1 [Compound 137, N-(4-amino-1H-pyrazolo[4,3-c]pyridin-7-yl)-2-((2R,5S)-2-(4-cyanophenyl)-5-methylpiperidin-1-yl)-2-oxoacetamide] | A (“A” indicates an IC50 ratio greater than or equal to 30 fold) | – |
| < 5 nM | > 50 nM | < 75 nM | – | C[C@H]1CC[C@H](c2cccnc2)N(C(=O)C(=O)Nc2cnc(N)c3cn[nH]c23)C1 [Compound 144, N-(4-amino-1H-pyrazolo[4,3-c]pyridin-7-yl)-2-((2R,5S)-5-methyl-2-(pyridin-3-yl)piperidin-1-yl)-2-oxoacetamide] | A (“A” indicates an IC50 ratio greater than or equal to 30 fold) | – |
| < 5 nM | > 50 nM | < 75 nM | – | C[C@H]1CC[C@H](c2ccncc2)N(C(=O)C(=O)Nc2cnc(N)c3cn[nH]c23)C1 [Compound 185, N-(4-amino-1H-pyrazolo[4,3-c]pyridin-7-yl)-2-oxo-2-[(2R,5S)-5-methyl-2-(4-pyridyl)-1-piperidyl]acetamide] | B (“B” indicates an IC50 ratio greater than or equal to 15 fold but lower than 30 fold) | – |
| – | – | – | > 50 nM | C[C@H]1CC[C@H](C2CC2)N(C(=O)C(=O)Nc2cnc(N)c3cn[nH]c23)C1 [Compound 277, N-(4-Amino-1H-pyrazolo[4,3-c]pyridin-7-yl)-2-oxo-2-[(2R,5S)-2-cyclopropyl-5-methyl-1-piperidyl]acetamide] | – | < 100 nM |

Read-outs that look alike come from different tables or passages of the source.
